Test results taken from the supplement of paper PMC11417369.
± gives the standard deviation of the averaged measurements. Some of the results follow.

Tested on: PfAP2-G AP2 domain (GST-tagged)
Test: gcPBM binding intensity (ln(normalized median fluorescence intensity)); higher = stronger DNA binding
Outline: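 Alexa488 anti-GST antibody, scanned at 488 nm, detected GST-tagged P. falciparum DNA-binding domains that had been expressed in E. coli and incubated for 1 h on an Agilent 4 × 180k array. The array carried primer-extended double-stranded 36-bp intergenic genomic probes and negative controls. Binding intensity is the highest Masliner-normalised natural-log median intensity across replicate spots of either orientation of each probe.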

Question: How did the “gcPBM binding intensity (ln)” value turn out when “AAGGCATACAATACCTGTACGCAACCTTAAAAAGAA [XGTACX_site6070]” was run?
Answer: 11.5 ± 0.91

Question: “ATATATATGTGAAAATCACACATTGCTTATCTGTAA [CACACA_site6044]” was tested. Which “gcPBM binding intensity (ln)” value did it give?
Answer: 9.685 ± 0.021

Question: With “TGTTTTATTATTTATAGTACATAAAAAAATATTGTA [XGTACX_site8963]” as the sequence, how does the “gcPBM binding intensity (ln)” value read?
Answer: 11.1 ± 0.82

Question: “TTCGTATATTATTAATGTACATTATAAAATCAATAT [XGTACX_site5751]” was tested. Which “gcPBM binding intensity (ln)” value did it give?
Answer: 10.9 ± 0.57

Question: For “AAAAAAACATGAAACACACACAAATATATATATATA [CACACA_site1884]”, which “gcPBM binding intensity (ln)” value is on record?
Answer: 10.1 ± 0.56

Question: Which “gcPBM binding intensity (ln)” value does the source give for “AACAATATTATTGTTTGTACTCACATATATAATATA [XGTACX_site8063]” here?
Answer: 11.5 ± 1.1

Question: “TTATTTTTTTTTTTTCGTACTTATTTATCTTGGTAT [XGTACX_site78]” was tested. Which “gcPBM binding intensity (ln)” value did it give?
Answer: 10.9 ± 0.51

Question: For “AGATATTTCATTTAAAGTACATTCTTTATCACATAA [XGTACX_site6731]”, which “gcPBM binding intensity (ln)” value is on record?
Answer: 11 ± 0.69

Question: “CACACGCACAAAAACACACACAAAGGTGTTCTTATA [CACACA_site6724]” was tested. Which “gcPBM binding intensity (ln)” value did it give?
Answer: 10.2 ± 0.18

Question: For “TATAATATAAAATAATGTACTTTGAAATATGACATA [XGTACX_site3579]”, which “gcPBM binding intensity (ln)” value is on record?
Answer: 10.9 ± 0.64

Question: Which “gcPBM binding intensity (ln)” value does the source give for “AGTTTGATTTTTTCTTATAATATATTATTATATATT [CACACA_negctrl_site376]” here?
Answer: 9.975 ± 0.021

Question: How did the “gcPBM binding intensity (ln)” value turn out when “AATATAAAAAAAAAATGTACATATTATATATATATA [XGTACX_site5113]” was run?
Answer: 11.1 ± 0.72

Question: With “AAAAATTTTTTTTCATTTGTTTTTATTCCGTAAAAA [CACACA_negctrl_site1217]” as the sequence, how does the “gcPBM binding intensity (ln)” value read?
Answer: 10.05 ± 0.057

Question: “ACCGAAGGAATTTATAGTACACATCATAAATAAATT [XGTACX_site4100]” was tested. Which “gcPBM binding intensity (ln)” value did it give?
Answer: 11.3 ± 0.74

Question: Which “gcPBM binding intensity (ln)” value does the source give for “ATATATATATATATTTGTACAGATTTATATTATAAT [XGTACX_site7612]” here?
Answer: 10.9 ± 0.54

Question: Which “gcPBM binding intensity (ln)” value does the source give for “GAAAATTTAATATAGAACGAAAGCATACACATATAT [GTGCAC_negctrl_site424]” here?
Answer: 10.02 ± 0.049

Question: For “CCATATAATATGAACAGTACACACAAAATAAATTCG [XGTACX_site7590]”, which “gcPBM binding intensity (ln)” value is on record?
Answer: 11.1 ± 0.72

Question: For “AAATATTATAGCACCACACACTTATTTTATATATAT [CACACA_site5281]”, which “gcPBM binding intensity (ln)” value is on record?
Answer: 10.3 ± 0.13

Question: Which “gcPBM binding intensity (ln)” value does the source give for “TTTTTATTAATAGATATAAATATATAATATGAATGT [TGCATGCA_negctrl_site309]” here?
Answer: 9.84 ± 0.11

Question: Which “gcPBM binding intensity (ln)” value does the source give for “ATATGTGATTTCTAATGTACACAAAAAAAAAAAAAA [XGTACX_site7701]” here?
Answer: 11.3 ± 0.91

Question: With “TTATGTCATAAATGCACACATATATAAATACAGATA [CACACA_site4959]” as the sequence, how does the “gcPBM binding intensity (ln)” value read?
Answer: 10 ± 0.22

Question: With “TCTTCAAACAAAAAAAATAATAAAAAGTACAAAATG [CACACA_negctrl_site363]” as the sequence, how does the “gcPBM binding intensity (ln)” value read?
Answer: 11.4 ± 0.82

Question: How did the “gcPBM binding intensity (ln)” value turn out when “CTTTTATTAAAATTCACACACATAAATTTTTATAAA [CACACA_site1993]” was run?
Answer: 10 ± 0.29

Question: How did the “gcPBM binding intensity (ln)” value turn out when “ATATATACGTATGAATGTATATTTGTTTGATTTTTT [CACACA_negctrl_site835]” was run?
Answer: 9.88 ± 0.12

Question: How did the “gcPBM binding intensity (ln)” value turn out when “GGGGTATCTTCCTATGCACACTTGTTATGTACTAAC [CACACA_site4610]” was run?
Answer: 11.1 ± 0.57

Question: Which “gcPBM binding intensity (ln)” value does the source give for “TTTTTGTTTTTGTTTTGTACTCATACATACTATCAT [XGTACX_site4210]” here?
Answer: 11.4 ± 0.88

Question: Which “gcPBM binding intensity (ln)” value does the source give for “GCTCAATTTTTGGGTACACACAAATGTATAATAATA [CACACA_site2388]” here?
Answer: 11.6 ± 1

Question: For “ATATATATTATTTCTACACACATATATATAATATGT [CACACA_site3374]”, which “gcPBM binding intensity (ln)” value is on record?
Answer: 9.97 ± 0.014

Question: With “TTTTTTCTATTGAGCACACATATCACGATTAGTACT [CACACA_site313]” as the sequence, how does the “gcPBM binding intensity (ln)” value read?
Answer: 10.6 ± 0.26

Question: With “AAAAAAAAAAAAAAAACACACATATAGATTTATATA [CACACA_site7196]” as the sequence, how does the “gcPBM binding intensity (ln)” value read?
Answer: 10.1 ± 0.2

Question: With “CAAAGAGAAATAAACACACACAAAATAAAGAAAAAA [CACACA_site2245]” as the sequence, how does the “gcPBM binding intensity (ln)” value read?
Answer: 9.915 ± 0.049

Question: Which “gcPBM binding intensity (ln)” value does the source give for “TTCTTTTTTCAACACACACACACAAGAAAATATATA [CACACA_site9019]” here?
Answer: 10.4 ± 0.37

Question: “CAATGCTTTATCAATACATGCATATATATAGAAATA [TGCATGCA_site857]” was tested. Which “gcPBM binding intensity (ln)” value did it give?
Answer: 9.755 ± 0.035

Question: How did the “gcPBM binding intensity (ln)” value turn out when “GCACTCGTAAAAAGCACACATATAAAAACATTTATA [CACACA_site322]” was run?
Answer: 10.2 ± 0.26

Question: How did the “gcPBM binding intensity (ln)” value turn out when “TGAACAGACAAATACACACACTCAAAAAAAAAAAAG [CACACA_site7287]” was run?
Answer: 10.2 ± 0.33

Question: “CATACATACAGACACACACACATATAAATACATACA [CACACA_site6533]” was tested. Which “gcPBM binding intensity (ln)” value did it give?
Answer: 10.3 ± 0.35

Question: “TTCCTGTTAATTACAACACACAATTCTTATTTTATG [CACACA_site6507]” was tested. Which “gcPBM binding intensity (ln)” value did it give?
Answer: 10.2 ± 0.16

Question: With “AAAATCTATAATATAACACACATATATTCTATATGG [CACACA_site7821]” as the sequence, how does the “gcPBM binding intensity (ln)” value read?
Answer: 9.67 ± 0.14

Question: “ATTTTCAAATTCTATGCATGTGTATATTATAGATAA [TGCATGCA_site1003]” was tested. Which “gcPBM binding intensity (ln)” value did it give?
Answer: 9.825 ± 0.078

Question: With “CTATAATAATAAAGTGAACACACACCGATAATATAT [CACACA_site9377]” as the sequence, how does the “gcPBM binding intensity (ln)” value read?
Answer: 10.12 ± 0.064

Question: How did the “gcPBM binding intensity (ln)” value turn out when “TTAACAAAACTTTTAACACACAAAAAAAAAAAAAAA [CACACA_site6947]” was run?
Answer: 9.84 ± 0.5

Question: With “ATGACCCACTTTTCTGCACACATAAAAAATATATAA [CACACA_site8092]” as the sequence, how does the “gcPBM binding intensity (ln)” value read?
Answer: 10.8 ± 0.5

Question: With “AACACATACATATATACACACACAAAATAATAAAAT [CACACA_site8724]” as the sequence, how does the “gcPBM binding intensity (ln)” value read?
Answer: 10.1 ± 0.28

Question: How did the “gcPBM binding intensity (ln)” value turn out when “TTATGATATATTTGTTGTACGCTTTTTTTATGAACT [XGTACX_site573]” was run?
Answer: 11.8 ± 1.1
